# Only a part is listed here, and it is no random draw. The list includes weakly bound sequences.
# Tests used:
# Experiment in all cases: protein-binding microarray (PBM)
# Settings in all cases: PBM: ~300 nM protein, 6 mM HEPES pH 7.8, 80 mM KCl, 0.5 mM EDTA, 0.5 mM EGTA, 6% glycerol, 35 ng/ul poly-dIdC, 1% milk, 1 h, room temperature; Ap Aiptasia and Nv Nematostella (sea anemones) / Co Capsaspora / Aq Amphimedon (sponge) / Dm Drosophila / Hu human; RHD is the Rel homology domain; high values mean tight binding; most listed sequences are background and not binding sites; double strand, one strand shown
# GST-Ap-NF-kB RHD = target: T1, GST-Ap-NF-kB RHD (UniProt A0A913YAJ5)
# T1 sequence: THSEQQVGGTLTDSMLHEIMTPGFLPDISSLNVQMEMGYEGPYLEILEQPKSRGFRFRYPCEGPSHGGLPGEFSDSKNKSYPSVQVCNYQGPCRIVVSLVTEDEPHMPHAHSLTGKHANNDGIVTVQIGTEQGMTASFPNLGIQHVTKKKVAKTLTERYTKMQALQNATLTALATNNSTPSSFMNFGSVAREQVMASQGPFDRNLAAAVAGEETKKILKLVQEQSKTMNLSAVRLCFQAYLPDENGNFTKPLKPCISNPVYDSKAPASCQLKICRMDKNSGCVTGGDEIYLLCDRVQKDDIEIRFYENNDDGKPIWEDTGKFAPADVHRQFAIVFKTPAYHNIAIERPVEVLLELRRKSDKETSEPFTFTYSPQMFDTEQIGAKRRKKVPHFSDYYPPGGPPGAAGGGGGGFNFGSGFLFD
# [1] = target: T2, GST-Nv-NF-kB (Cys allele) (UniProt E5G601)
# T2 sequence: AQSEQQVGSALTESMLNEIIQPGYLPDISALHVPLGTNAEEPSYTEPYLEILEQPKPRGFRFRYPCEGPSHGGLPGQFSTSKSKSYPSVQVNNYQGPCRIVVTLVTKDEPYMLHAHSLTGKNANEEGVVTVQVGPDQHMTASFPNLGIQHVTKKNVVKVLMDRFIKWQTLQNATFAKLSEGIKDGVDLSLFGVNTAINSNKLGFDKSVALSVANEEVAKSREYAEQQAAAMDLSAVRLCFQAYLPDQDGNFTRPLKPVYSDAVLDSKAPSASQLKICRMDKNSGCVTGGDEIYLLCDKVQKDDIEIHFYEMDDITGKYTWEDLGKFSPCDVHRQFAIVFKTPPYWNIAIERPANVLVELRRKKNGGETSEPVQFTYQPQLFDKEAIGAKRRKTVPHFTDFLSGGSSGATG
# GST-Dm-Relish = target: T3, GST-Dm-Relish (UniProt Q94527)
# T3 sequence: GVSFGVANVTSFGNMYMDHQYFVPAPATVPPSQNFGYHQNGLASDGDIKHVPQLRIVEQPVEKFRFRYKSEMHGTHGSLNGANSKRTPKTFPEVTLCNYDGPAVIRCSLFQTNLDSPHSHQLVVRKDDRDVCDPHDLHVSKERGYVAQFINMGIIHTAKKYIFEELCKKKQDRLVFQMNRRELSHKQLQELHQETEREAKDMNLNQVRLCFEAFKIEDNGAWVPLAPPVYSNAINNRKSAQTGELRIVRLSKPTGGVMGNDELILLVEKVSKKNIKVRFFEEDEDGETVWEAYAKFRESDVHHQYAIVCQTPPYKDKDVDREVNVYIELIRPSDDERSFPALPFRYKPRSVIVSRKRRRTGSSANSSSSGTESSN
# GST-Co-NF-kB = target: T4, GST-Co-NF-kB (UniProt F1ARL5)
# T4 sequence: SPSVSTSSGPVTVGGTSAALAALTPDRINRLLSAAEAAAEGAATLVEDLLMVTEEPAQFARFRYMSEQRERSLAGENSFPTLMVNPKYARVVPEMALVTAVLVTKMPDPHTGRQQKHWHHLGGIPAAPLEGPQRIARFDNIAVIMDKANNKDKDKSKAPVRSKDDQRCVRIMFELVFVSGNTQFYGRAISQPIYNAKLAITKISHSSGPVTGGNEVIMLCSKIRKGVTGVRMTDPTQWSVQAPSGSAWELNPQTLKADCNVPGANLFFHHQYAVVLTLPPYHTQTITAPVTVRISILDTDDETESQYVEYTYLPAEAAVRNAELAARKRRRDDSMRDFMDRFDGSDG
Sequence,binding signal (GST-Ap-NF-kB RHD) [z-score],binding signal [1] [z-score],binding signal (GST-Dm-Relish) [z-score],binding signal (GST-Co-NF-kB) [z-score]
CCGATTAACATCAGGGGGAACCCTGATGTTAATCGGGTCTTGATTCGCTTGACGCTGCTG,8.64,7.75,9.93,–
CCGATTAACATCAGGGGGATGCATGATGTTAATCGGGTCTTGATTCGCTTGACGCTGCTG,4.72,4.49,3.39,–
CCGATTAACATCAGGAGTATCCCTGATGTTAATCGGGTCTTGATTCGCTTGACGCTGCTG,0.653,0.77,0.343,–
CCGATTAACATCAAAATTCCCGATGATGTTAATCGGGTCTTGATTCGCTTGACGCTGCTG,4.37,6.05,5.06,–
CCGATTAACATCAGGGGGGGAAATGATGTTAATCGGGTCTTGATTCGCTTGACGCTGCTG,6.79,–,–,10.2
CCGATTAACATCAGAGGATTCCCTGATGTTAATCGGGTCTTGATTCGCTTGACGCTGCTG,3.72,–,–,2.44
CCGATTAACATCAGGGGAATTACTGATGTTAATCGGGTCTTGATTCGCTTGACGCTGCTG,8.73,10.6,10.2,–
CCGATTAACATCAGGAGTTTACCTGATGTTAATCGGGTCTTGATTCGCTTGACGCTGCTG,1.12,–,–,-0.094
CCGATTAACATCAGGGAGCTACCTGATGTTAATCGGGTCTTGATTCGCTTGACGCTGCTG,2.89,–,–,0.628
CCGATTAACATCAAAAATTTTCCTGATGTTAATCGGGTCTTGATTCGCTTGACGCTGCTG,0.225,0.772,2.62,–
CCGATTAACATCAAGGAAAAACCTGATGTTAATCGGGTCTTGATTCGCTTGACGCTGCTG,0.231,–,–,0.551
CCGATTAACATCACCATTTCCCCTGATGTTAATCGGGTCTTGATTCGCTTGACGCTGCTG,5.75,–,–,6.17
CCGATTAACATCAGGGAAAGCTATGATGTTAATCGGGTCTTGATTCGCTTGACGCTGCTG,2.11,3.99,0.107,–
CCGATTAACATCAGGGAAAATACTGATGTTAATCGGGTCTTGATTCGCTTGACGCTGCTG,3.76,–,–,4.49
CCGATTAACATCAGGATTATCCCTGATGTTAATCGGGTCTTGATTCGCTTGACGCTGCTG,2.26,2.9,0.85,–
CCGATTAACATCAGGAAAACACCTGATGTTAATCGGGTCTTGATTCGCTTGACGCTGCTG,2.56,–,–,-0.232
CCGATTAACATCAGACATGGGAATGATGTTAATCGGGTCTTGATTCGCTTGACGCTGCTG,0.681,1.46,0.259,–

Sequence,binding signal (GST-Ap-NF-kB RHD) [z-score],binding signal [1] [z-score],binding signal (GST-Dm-Relish) [z-score],binding signal (GST-Co-NF-kB) [z-score]
CCGATTAACATCATTCCCGGGAATGATGTTAATCGGGTCTTGATTCGCTTGACGCTGCTG,2.49,–,–,5.77
CCGATTAACATCAAGGTGTTTCCTGATGTTAATCGGGTCTTGATTCGCTTGACGCTGCTG,1.56,–,–,-0.13
CCGATTAACATCAGAATATTCCCTGATGTTAATCGGGTCTTGATTCGCTTGACGCTGCTG,5.6,–,–,3.41
CCGATTAACATCACGGGACTCCCTGATGTTAATCGGGTCTTGATTCGCTTGACGCTGCTG,5.53,–,–,1.53
CCGATTAACATCACACTTTCCCCTGATGTTAATCGGGTCTTGATTCGCTTGACGCTGCTG,6.32,–,–,7.06
CCGATTAACATCAAGAACCCCCGTGATGTTAATCGGGTCTTGATTCGCTTGACGCTGCTG,6.68,–,–,3.25
CCGATTAACATCAGAAACCCCCCTGATGTTAATCGGGTCTTGATTCGCTTGACGCTGCTG,9.47,–,–,3.94
CCGATTAACATCAAATAAGTCCCTGATGTTAATCGGGTCTTGATTCGCTTGACGCTGCTG,4.69,–,–,1.42
CCGATTAACATCAGGGGGAATAATGATGTTAATCGGGTCTTGATTCGCTTGACGCTGCTG,7.08,–,–,10.1
CCGATTAACATCACTAGTTTCCCTGATGTTAATCGGGTCTTGATTCGCTTGACGCTGCTG,3.06,–,–,4.16
CCGATTAACATCAAAAGTTCCCCTGATGTTAATCGGGTCTTGATTCGCTTGACGCTGCTG,8.35,–,–,9.64
CCGATTAACATCAAATGTTCCCCTGATGTTAATCGGGTCTTGATTCGCTTGACGCTGCTG,5.58,–,–,9.87
CCGATTAACATCACGGTATTTCCTGATGTTAATCGGGTCTTGATTCGCTTGACGCTGCTG,1.56,–,–,0.893
CCGATTAACATCAGGGGGTACACTGATGTTAATCGGGTCTTGATTCGCTTGACGCTGCTG,4.19,–,–,4.33
CCGATTAACATCAGATATTCCCCTGATGTTAATCGGGTCTTGATTCGCTTGACGCTGCTG,7.71,–,–,8.17
CCGATTAACATCAGGGATTCCAATGATGTTAATCGGGTCTTGATTCGCTTGACGCTGCTG,1.68,–,–,0.681
CCGATTAACATCAGGGAACTACATGATGTTAATCGGGTCTTGATTCGCTTGACGCTGCTG,1.52,–,–,1.62
